Hit rate of the full screen: of about 44,000 compounds, about 340 (0.77%) were called active. Inconclusive results (about 5%) are left out. Calls come from the whole dose curve; as a rule, active = well fitted inhibition curve with a large enough effect; inconclusive = small, poorly fitted or top-dose-only effect; inactive = flat fitted curve, though single readings scatter. This is one part of the list.
assay: Acumen qHTS Assay for Inhibitors of the mTORC1 Signaling Pathway in MEF (Tsc2-/-, p53-/-) Cells: Sytravon; details: phospho-rpS6 immunofluorescence/PI, 24 h; series mostly up to 38.3 µM; activity change, negative = inhibition: at the top concentration;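 note: plate controls were DMSO for no effect and rapamycin for full effect; nearly all actives have a fitted effect of over 50% in size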
Outline: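 Immunofluorescence of rpS6 phosphorylation in Tsc2-/-, p53-/- MEFs after 24 h compound exposure, normalized to propidium iodide signal. Activity is expressed as % positive cells, thresholded with 7.5 nM rapamycin.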

Activity change, negative = inhibition, inactive:
Cc1ccc(NC(=O)c2sc3nc[nH]c(=O)c3c2C)cc1C -6.56%, Cc1ccc(NC(=O)CN2C(=O)c3ccccc3Sc3ncccc32)c(C)c1 -11.7%, CCn1c(SCC(=O)Nc2cc(Cl)ccc2OC)nc2c([nH]c3ccccc32)c1=O 0.124%, CC(=O)c1ccc(NC(=O)c2nn(C)c3c2COc2ccccc2-3)cc1 0.45%, CCOc1ccccc1NC(=O)N1CCC(N2CCN(Cc3ccccc3)C(=O)C2=O)CC1 -0.696%, CCOC(=O)c1c(NC(=O)c2cc(-c3ccc(Br)cc3)on2)sc(C)c1C -0.0733%, CCc1cc2c(-c3ccccc3)cc(=O)oc2c2c1OCN(Cc1ccc(C)cc1)C2 -5.69%, CC(Oc1ccccc1F)C(=O)N1CCC(c2nc3ccccc3o2)CC1 (centres undefined) -10.9%, O=c1c2ccccc2nc(-c2ccc(Cl)cc2)n1CCCCOc1ccc(F)cc1 -1.84%, COC(=O)c1ccc(NC(=O)CCOc2ccccc2)cc1 -1.41%, Cc1ccc(Cn2c(Cc3ccccc3)nc3ccccc32)cc1 1.72%, CCOc1ccc(CN2C(=O)c3ccccc3Sc3ccc(C(=O)NC4CCC(C)CC4)cc32)cc1 (centres undefined) 5.53%, CCOC(=O)c1ccccc1NC(=O)CCc1c(C)nc2c(c1C)c(=O)n(C)c(=O)n2C 0.565%, Cc1ccc(N(CC(=O)NCc2ccc(OC(C)C)cc2)S(=O)(=O)N(C)C)cc1 -1.11%, COc1ccc(CNC(=O)CCS(=O)(=O)c2cc3c4c(c2)CCN4C(=O)CC3)cc1 3.16%, COC(=O)c1ccc(NC(=O)c2cc3cc4ccc(OC)c(Cl)c4nc3s2)cc1 -10.1%, Cn1cc(C(=O)N2CCN(c3ccccc3)CC2)c(=O)c2cc(S(=O)(=O)N3CCCC3)ccc21 0.634%, O=C(NC1CC(=O)N(c2ccc(F)cc2)C1)C(c1ccccc1)c1ccccc1 (centres undefined) -1.67%, COc1ccc(-c2noc(CSc3nnc(-c4ccncc4)n3-c3ccc(OC)cc3)n2)cc1 -3.01%, Cc1cccc(NC(=O)Cn2c(=O)oc3cc(S(=O)(=O)N4CCCCCC4)ccc32)c1 1.14%, COCCNC(=O)c1ccc(NC(=O)N2CCCCc3ccccc32)cc1 -1.85%, CCOc1ccc(CNC(=O)CN2C(=O)CSc3c2c(C)nn3-c2ccccc2)cc1 0.455%, O=C(Nc1c(O)c2ccccc2oc1=O)c1ccccc1Cl 1.14%, Cc1ccc(CSc2nc3cccnc3n2Cc2nc(-c3ccccc3F)oc2C)cc1 -23.7%, COc1ccc(NC(=O)C(=O)NCCc2csc3nc(-c4ccccc4C)nn23)cc1 -0.185%, CCOc1ccc(-n2nc3ccc(NC(=O)COc4ccccc4C)cc3n2)cc1 -11.6%, COc1ccc(S(=O)(=O)N(CCc2ccccc2)CC(=O)NCc2ccc(C)cc2)cc1 11.6%, COC(=O)c1ccccc1NC(=O)CSc1c2c(nc3ccc(Cl)cc13)CCCC2 -0.141%, Cc1cc(C)c(S(=O)(=O)Nc2ccc(-c3ccc(N4CCCCC4)nn3)cc2)cc1C 2.02%, COc1cccc(CNC(=O)C2CCCN(c3nnc(-n4c(C)ccc4C)s3)C2)c1 (centres undefined) -2.03%, O=C(NCC(c1cccnc1)N1CCN(Cc2ccccc2)CC1)C(=O)Nc1ccc(F)cc1 (centres undefined) 6.03%, CC(C)c1ccc(NC(=O)CN(C)S(=O)(=O)c2ccc3c(c2)n(C)c(=O)c(=O)n3C)cc1 -11.3%, CCn1cnc2cc(NCc3ccc(N(C)C)cc3)ccc21 -2.37%, CCC1CCCCN1C(=O)CSc1nc(-c2ccc(OC)cc2)cc(C(F)(F)F)n1 (centres undefined) -5.55%, CCc1ccc(CNC(=O)c2cnc3sc(N4CCCCCC4)nn3c2=O)cc1 -19.5%, CCOc1ccc(C(=O)Nc2ccc3nc(SCC(=O)N4CCCC4)sc3c2)cc1 2.81%, Cc1ccc(SCC(=O)Nc2ccc3oc(-c4ccc(F)cc4)nc3c2)cc1 -7.3%, COc1ccc(C(=O)NCc2nnc(SCC(=O)Nc3ccc(C)cc3)n2-c2ccccc2)cc1 -3.87%, CCc1ccc(CNC(=O)c2ccc(NC(=O)N3CCSc4ncccc43)cc2)cc1 -1.92%, CCc1nc2nc(C)cc(Nc3cc(Cl)ccc3OC)n2n1 -1.01%, Cc1ccc(S(=O)(=O)N2CCC(c3nnc(-c4cccc(C)c4)o3)CC2)cc1 -2.43%, CCOc1ccc(CNC(=O)CCc2c(C)nn(-c3ccc(N4CCOCC4)nn3)c2C)cc1 -13.2%, CC(C)NC(=O)Cn1c(=O)nc(-c2ccccc2)c2ccccc21 0%, CCOc1ccc(CCNC(=O)c2ccc(C)c(-n3cnc4cccnc43)c2)cc1 -0.513%, CCOc1ccc(Nc2cc(C)c(C#N)c3nc4ccccc4n23)cc1 5.35%, Cc1cccc(N(C)C(=O)CS(=O)(=O)c2cccc3nsnc23)c1 -1.41%, COc1cccc(CNC(=O)c2ccc3c(Cl)c4c(nc3c2)CCCC4)c1 3.36%, Cc1ccc(C(C)C)c(OCc2ccc(C(=O)Nc3ccc(S(N)(=O)=O)cc3C)o2)c1 -1%, O=C(OCc1ccco1)c1ccc2c(c1)N(Cc1ccc([N+](=O)[O-])cc1)C(=O)c1ccccc1S2 -9.3%, Cc1nc(-n2nc(C)c(CCC(C)C)c2C)sc1C(=O)Nc1cccc(Cl)c1C 0.257%, CCOC(=O)c1c(NC(=O)c2ccccc2C)sc2c1CCCC2 2.87%, Oc1ccccc1-c1nc(/C=C/c2ccccc2)nn1-c1ccccc1 4.16%, O=C(CN1C(=O)COc2ccc(S(=O)(=O)N3CCCC3)cc21)NCCc1ccc(Cl)cc1 -17.8%, O=c1[nH]c2ccc(NS(=O)(=O)c3ccc(F)cc3)cc2s1 1.66%, CCOc1ccc2nc(N3CCN(C(=O)C(C)C)CC3)sc2c1 -13.7%, CC1CCN(c2nn3c(=O)c(C(=O)NCCc4ccc(Cl)cc4)cnc3s2)CC1 -3.74%, Brc1ccc(-c2nc(N3CCN(c4ccccc4)CC3)c3ccccc3n2)cc1 0%, Cn1nnnc1SCCCNCc1ccc(-c2cccc(Cl)c2)o1 -18.5%, Cc1ccc(-n2ccnc(NCCc3ccccc3)c2=O)cc1C -10.1%, COc1ccc(NC(=O)CSc2nnc(-c3nonc3NC(C)=O)n2C)cc1Cl 1.18%, Cc1ccccc1-n1c2nc(=O)[nH]c(=O)c-2cc2c(Cl)cccc21 -27.3%, CCOC(=O)c1c(C)[nH]c(C)c1S(=O)(=O)N1CCCC(C(=O)Nc2ccc(OC)c(OC)c2)C1 (centres undefined) -0.138%, O=c1cc2nc(-c3ccccc3F)nc(SCc3ccc(Br)cc3)n2[nH]1 -4.79%, Cc1cccc(Cn2c(SCc3ccc(C(=O)NCc4cccs4)cc3)nc3cccnc32)c1 -15.3%, CC(C)c1ccc(NC(=O)c2cc(S(=O)(=O)NC3CCCCC3)ccc2F)cc1 -6.7%, COCCCN1C(=O)c2[nH]nc(-c3ccccc3O)c2C1c1ccc(OC)cc1 (centres undefined) -21.7%, Cc1c(Cl)cccc1NC(=O)CCn1cnnn1 -1.84%, CCN(CC)CCCNC(=O)C(C)n1nc(C)n2c(cc3occc32)c1=O (centres undefined) -4.3%, COC(=O)c1cc(C)nc2c1c(=O)nc(SCc1cccc(C(F)(F)F)c1)n2C1CC1 0%, COc1ccc(Cl)cc1NC(=O)COC(=O)CC(C)(C)CC1=NS(=O)(=O)c2ccccc2N1 -0.441%, COC(=O)c1ccccc1NC(=O)CN(c1ccc(Cl)cc1)S(=O)(=O)c1ccc(OC)cc1 3.1%, COc1ccc(CCNC(=O)Cn2c(=O)nc(-c3ccccc3F)c3cc(Cl)ccc32)cc1OC 7.89%, O=C(C1CCC(CNS(=O)(=O)c2cccs2)CC1)N1CCN(c2ccc(Cl)cc2)CC1 (centres undefined) -1.59%, Cc1ccc2[nH]c(CSc3nnc(C)s3)cc(=O)c2c1 4.44%, CCOc1ccccc1NC(=O)C1CCN(S(=O)(=O)c2cccc3nonc23)CC1 -10.4%, COc1ccc(N2CCN(c3ncnc4onc(C)c34)CC2)cc1 5.84%, Cc1cccc(N2CCN(C(=O)C3CCCN(C(=O)c4cc5sccc5n4C)C3)CC2)c1C (centres undefined) -13%, O=C(Nc1cc(-c2ccc(F)c(F)c2)no1)c1ccccc1F -4.08%, CC1=C(C(=O)Nc2ccc(F)cc2)C(c2ccc(N(C)C)cc2)NC(=O)N1 (centres undefined) 4.44%, CCC1CN(C(=O)C2CCN(S(=O)(=O)c3c(C)noc3/C=C/c3ccc(C)cc3)CC2)c2cc(C)ccc2O1 (centres undefined) -0.667%, CCOc1ccc(CCNC(=O)Cn2ccc3cc(S(=O)(=O)N4CCCCCC4)ccc32)cc1 -7.89%, COc1ccc(NC(=O)C(=O)c2cc(C)n(-c3ccc(C)cc3)c2C)cc1Cl 1.28%, COCCNC(=O)CCn1c(=O)[nH]c2cc(OC)c(OC)cc2c1=O 4.6%, CC1CCCN(c2ncnc3c2nnn3C)C1 (centres undefined) 1.71%, CCC1CN(C(=O)N2CCC(C(=O)NCc3ccccc3F)CC2)c2ccccc2O1 (centres undefined) 2.13%, CCCOC(=O)c1cccc(Nc2nc(C(=O)OCC)nc3ccccc23)c1 -22.5%, O=C(Nc1ccc(C(F)(F)F)cc1)C1(c2cccs2)CCOCC1 0.819%, COc1ccc(CNC(=O)Cc2ccc(NC(=O)N3CCCCc4ccccc43)cc2)cc1 -0.0444%, CCOc1ccc(NC(=O)c2cc(S(=O)(=O)N3CCC(C)CC3)cn2C)cc1 -0.992%, CC(Oc1ccccc1F)C(=O)NCC1(N2CCOCC2)CCCCC1 (centres undefined) -19.7%, Cc1ccc(NC(=O)c2c(C)oc3ncnc(N4CCCCC4)c23)c(C)c1 -2.08%, Cc1cc(C)cc(NC(=O)c2cc(S(=O)(=O)N3CCCCC3)c[nH]2)c1 2.05%, COc1ccc(CNC(=O)C2CCN(c3nnc(C)c4c(C)n(-c5ccc(C)cc5)nc34)CC2)cc1 0.966%, CCc1ccc(NC(=O)c2sc3nc(C)cc(C)c3c2NC(=O)c2ccccc2)cc1 4.26%, Cc1ccc(-c2nn3c(C)nnc3c3ccccc23)cc1S(=O)(=O)NC(C)(C)CO -5.16%, COc1ccc(OC)c(-c2cc(C(=O)NCc3ccc(Cl)cc3)no2)c1 -5.48%, Cc1ccccc1NC(=O)C1CCN(S(=O)(=O)c2cccc3nonc23)CC1 1.61%, O=C(Nc1nnc2n1CCS2)c1cc(C(F)(F)F)cc(C(F)(F)F)c1 0.209%, CCOc1ccc(N(C)S(=O)(=O)c2cc(-c3cnc(C)o3)ccc2OC)cc1 2.3%
